The results in this text go back to publication PMC12040169 (PLOS Biology, 2025).

Each structure is given as a SMILES string. Some of the results follow.

For the experiment, the system named is T1, C. trachomatis L2/434/Bu expressing GFP (CTL2-GFP).
T1 construct: L2/434/Bu GFP intracellular growth in HeLa cells
Also on record: species or system HeLa; C. trachomatis total inclusion area by high-content imaging, normalised to DMSO. Particulars: total inclusion area; 28.5 h, 10 µM; inhibitor. The method in brief: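 After bulk GFP and resorufin fluorescence reads, cells were fixed, stained with Hoechst and imaged by high-content microscopy. Inclusion area and number (GFP) stood in for chlamydial growth, nuclei count (Hoechst) for host cell viability. MICs were derived as for the bulk readout.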
`O=c1c(N2CCC(Sc3ccccc3)CC2)nccn1Cc1ccc(OC(F)(F)F)cc1` [CBK155257]: the “% of control remaining” value came to 85.8415.

Regarding `O=C(CSCc1ccc(C(=O)O)cc1)Nc1ccc2ccccc2c1` [CBK299833], the “% of control remaining” value is listed as 59.4712.

For the molecule `CC1(C)CC(=O)C2=C(C1)OC(=O)CC2c1ccc(Cl)cc1Cl` (centres unmarked) [CBK007777], the “% of control remaining” value came to 76.0493.

Take `Cc1ccc(-n2c(C)c([N+](=O)[O-])c3ccc(O)cc32)cc1` [CBK094246]: the “% of control remaining” value is given as 109.489.

Regarding `Clc1ccc(Cn2ncc3c(NCc4cccnc4)ncnc32)cc1` [CBK300478], the “% of control remaining” value was 54.642.

Turning to `Cc1cccc(C(C)C)c1NC(=O)C1Cc2ccccc2CN1S(=O)(=O)c1ccc(F)cc1` (centres unmarked) [CBK267992], the “% of control remaining” value worked out at 90.098.

Regarding `CCN1CCN(S(=O)(=O)c2ccccc2F)CC1` [CBK100558], the “% of control remaining” value turned out to be 77.7487.

For the molecule `COc1ccccc1Cc1cccc(C2CCN(C(=O)Cc3ccccc3)CC2)n1` [CBK286240], the “% of control remaining” value was found to be 76.8699.

Take `Cc1cccc(CN2CCN(c3ccccc3C(O)c3nccn3C)CC2)c1` (centres unmarked) [CBK286441]: the “% of control remaining” value is 90.2832.

For `O=c1[nH]c(-c2ccccc2)nc2c1CN(Cc1ccc(F)cc1)CC2` [CBK282329], the “% of control remaining” value stood at 96.8069.

For `Cc1nn(CCC(=O)NCc2ccco2)c(C)c1Cl` [CBK269961], the “% of control remaining” value came to 88.1741.

With `Cc1noc(C)c1CNS(=O)(=O)N1CCOC(c2ccccc2)C1` (centres unmarked) [CBK305306], the “% of control remaining” value is on record as 80.5067.

As for `COC(=O)c1c(NC(=O)C2C3C=CC(C3)C2C(=O)O)sc2c1CCCCC2` (centres unmarked) [CBK262653], the “% of control remaining” value came out at 104.004.

As to `CSCc1nc(CS(=O)(=O)Cc2cccc(C(F)(F)F)c2)no1` [CBK023617], the “% of control remaining” value is on record as 115.844.

On to `O=C(O)c1cccc2c1Sc1ccccc1O2` [CBK017129], for which the “% of control remaining” value is recorded as 28.4208.

As to `CC(=O)Oc1cc(C)cc(C#N)c1` [CBK038296], the “% of control remaining” value is recorded as 82.893.

Regarding `Cc1ccc(C(=O)NC(=S)Nc2ccc(-c3ccc(CO)o3)cc2)cc1[N+](=O)[O-]` [CBK269127], the “% of control remaining” value was found to be 109.493.

As to `S=c1nc(-c2ccccc2)n2cc(Br)ccc2n1` [CBK026696], the “% of control remaining” value came out at 87.7765.

Turning to `O=C(O)c1ccc(N2CCCCS2(=O)=O)cc1Cl` [CBK287142], the “% of control remaining” value amounted to 93.7274.

For `Cc1ccc(-c2nn(CCC#N)cc2C(=O)N2CCCCC2)cc1` [CBK306119], the “% of control remaining” value turned out to be 77.6956.

For the molecule `CCOc1ccsc1C(=O)Nc1cc2ccccc2c(N2CCNCC2)n1` [CBK036341T], the “% of control remaining” value turned out to be 96.3839.

For `CN1C(=O)c2ccccc2C(=O)[C@@]2(C)CN(C3CCCC3)C[C@@H]12` [CBK283476], the “% of control remaining” value came to 74.5826.

Turning to `CC(=O)c1cccc(NC(=O)Nc2ccc(S(=O)(=O)Nc3cc(C)on3)cc2)c1` [CBK299794], the “% of control remaining” value is on record as 54.2185.

On to `Cn1nc(C2CCN(C(=O)CCc3ccccc3)CC2)c2cccnc21` [CBK285050], for which the “% of control remaining” value is reported as 67.9097.

With `O=C(NCCN1CCOCC1)NCC12CC3CC(C1)CC(c1ccccc1)(C3)C2` [CBK268388], the “% of control remaining” value turned out to be 94.0879.

Turning to `S=C(Nc1ccccc1)N1CCCCC1CN1CCCCC1` (centres unmarked) [CBK006196], the “% of control remaining” value turned out to be 73.4114.

As for `COCc1nc2ccccc2n1CC(=O)N1CCC(c2ccccc2)C1` (centres unmarked) [CBK282211], the “% of control remaining” value was found to be 103.664.

`Cc1cccc(C(=O)Nc2c(C(=O)Nc3ccc(Br)cc3)cnn2-c2ccccc2)c1` [CBK264839]: the “% of control remaining” value was 84.38.

In the case of `O=C(CSc1nncc(=O)[nH]1)NCc1ccccc1` [CBK270246], the “% of control remaining” value amounted to 108.924.

Turning to `Cc1nonc1/N=N/N(CC(=O)N1CCOCC1)c1nonc1C` [CBK262399], the “% of control remaining” value was found to be 90.5472.

In the case of `CCOC(=O)N(C)c1c(CC)nc2c(OCC(=O)C(C)(C)C)cccn12` [CBK147382], the “% of control remaining” value was determined as 94.5587.

Take `CCOC(=O)CN1CCN(S(=O)(=O)c2ccc(F)c(Cl)c2)CC1` [CBK043782]: the “% of control remaining” value is given as 88.3368.

For the molecule `CS(=O)(=O)N(CC(=O)Nc1ccccc1-c1ccccc1)c1ccc(F)c(Cl)c1` [CBK268539], the “% of control remaining” value is 94.5038.

In the case of `Cc1cc(NC(=O)CSc2nc(-c3ccc(F)cc3)cc(C(F)(F)F)n2)n(-c2ccccc2)n1` [CBK266248], the “% of control remaining” value came out at 138.943.

On to `COc1ccc(C(C)C)cc1-c1cncc(Nc2ccc(Cl)cc2)n1` [CBK065285], for which the “% of control remaining” value turned out to be 97.905.

With `O=C(N[C@H]1CO[C@H]2[C@@H]1OC[C@@H]2Nc1nccc(-c2cccc(F)c2)n1)C1CC1` [CBK289535], the “% of control remaining” value was 96.2899.

As for `CC1CCN(Cc2ccc(-c3nnn(CC(=O)NCc4ccc(S(N)(=O)=O)cc4)n3)cc2)CC1` [CBK144141C], the “% of control remaining” value was 103.097.

On to `O=C(O)c1cccc(-n2ncc(-c3ccccc3C(F)(F)F)n2)c1` [CBK112721], for which the “% of control remaining” value amounted to 89.9121.

For the molecule `CCCc1nn(CC(=O)N(C)C)c(=O)c2cc3ccsc3n12` [CBK284193], the “% of control remaining” value is given as 80.7382.

Turning to `CC1CCc2c(sc(NC(=O)c3ccccc3)c2CN2CCCC2)C1` (centres unmarked) [CBK265908], the “% of control remaining” value is on record as 117.447.

`Oc1cc(C(F)(F)F)nc(NCc2cccc3ccccc23)n1` [CBK003716]: the “% of control remaining” value is on record as 71.878.

For the molecule `CCOC(=O)c1cccc(-n2cc(-c3ccc(Br)cc3F)nn2)c1` [CBK113153], the “% of control remaining” value came out at 87.1805.

On to `COc1cc(/C=N\NC(=O)CSc2nc3ccccc3o2)ccc1O` [CBK263630], for which the “% of control remaining” value turned out to be 107.916.

As to `Cc1c(C(=O)N2CCC[C@H]2[C@H](O)c2nccs2)oc2ccccc12` [CBK284281], the “% of control remaining” value amounted to 48.7087.

Consider `Cc1nn(CC(=O)N2CCN(Cc3ccccn3)CC2)c(C)c1Cl` [CBK305978], for which the “% of control remaining” value was found to be 69.6893.

As to `CCN(CCO)c1ccc(Nc2cc(-c3cc(C(F)(F)F)cc(C(F)(F)F)c3)ncn2)cc1` [CBK090994], the “% of control remaining” value is 131.945.

Take `CN(C)C1CCN(C(=O)c2ccc(-c3cnc(OCC4CCN(C(=O)OC(C)(C)C)CC4)nc3)cc2)C1` (centres unmarked) [CBK169767]: the “% of control remaining” value was 71.3174.

Consider `CC(C)(C)Oc1nc(=O)[nH]c(=O)[nH]1` [CBK007194], for which the “% of control remaining” value is reported as 17.4774.

In the case of `CN(C)CCn1nc(-c2cccc(-n3cccc3)c2)oc1=O` [CBK284002], the “% of control remaining” value is 88.0447.

Turning to `COc1cccc(C(=O)NCCC(=O)N2CCCC(c3ncc[nH]3)C2)c1` (centres unmarked) [CBK306864], the “% of control remaining” value came to 78.2694.
